Laboratory results as given in PubChem BioAssay (NCI).
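1) Cells in 96-well plates. 2) Compound, 48 h, 5 concentrations. 3) Linear interpolation between surrounding doses. 4) Unreached endpoint = highest concentration. GI50 marks 50% less growth. TGI: concentration producing complete growth inhibition.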

system: NCI-H322M lung; test: inhibition of tumour cell growth, NCI panel, 48 h

Compound	TGI [µM]	GI50 [µM]
O=C1NCC(CSc2nc3cc(C4CCCc5c4[nH]c4ccccc54)ccc3o2)N1 (centres undefined)	> 100	
Cc1ccc2nc(Cl)c(/C=N/N3C(=O)/C(=C/c4cccc([N+](=O)[O-])c4)N=C3c3ccccc3)cc2c1	> 100	
NCCCOc1ccc([N+](=O)[O-])cc1Cl	> 100	
N.N.N.N.N.NC(=O)c1nn[n-]n1.[Cl-].[Co+3]	> 100	> 100
COC(=O)C1CC2CCC1(O[Si](C(C)C)(C(C)C)C(C)C)C(O)C2 (centres undefined)	95.4	
CCOC(=O)N1CCN(/[N+]([O-])=N/Oc2ccc([N+](=O)[O-])cc2[N+](=O)[O-])CC1	15.2	4.4
COc1c2cc(C(C)(C)C)cc1Cc1cccc(c1OCc1cccc([N+](=O)[O-])c1)Cc1cc(C(C)(C)C)cc(c1OC)Cc1cccc(c1OCc1cccc([N+](=O)[O-])c1)Cc1cc(C(C)(C)C)cc(c1OC)Cc1cccc(c1OCc1cccc([N+](=O)[O-])c1)C2	> 50	
O=C1/C(=c2\s/c(=C\c3ccccc3)c(=O)n2-c2ccccc2)SC(=S)N1c1ccccc1	> 100	
CC1=NN(c2cccc(Cl)c2)C(=N/c2nc3ccccc3s2)/C1=C\c1ccc(Cl)cc1	> 100	
CCN1C(=O)N(CC)C2C1NN=c1s/c(=C\c3cccc(F)c3)c(=O)n12 (centres undefined)	> 100	3.27
C[C@@]1(C(=O)O)CCC[C@]2(C)C1CC[C@@]13CC(=O)[C@@](CO)(CC[C@]12O)C3 (some centres undefined)	> 100	85.3
N=C(N)C1CN(CCCCCCCCCCN2CC(C(=N)N)C(=O)NC2=O)C(=O)NC1=O (centres undefined)	> 10	
O=C(Oc1cccc(F)c1OC(=O)c1cccc(O)c1)c1cccc(O)c1	> 100	53.7
S=c1nc(N2CCCCC2)c2cn[nH]c2[nH]1	> 100	
CC(C)Oc1c(O)c2c3c(oc(=O)n3C=CC2c2ccccc2)c1OC(C)C (centres undefined)	> 100	
O=NN1C(c2ccccc2)CC(=NO)CC1c1ccccc1 (centres undefined)	> 100	
O=C(c1ccccc1)n1c(Cc2ccccc2)nc2cc(C34CC5CC(CC(C5)C3)C4)ccc21	> 100	
COc1ccc(/C=C/C(=O)c2cc(OC)c(OC)c(OC)c2)cc1OCc1cn(Cc2ccc(F)cc2)nn1	> 100	3.46
O=C(COc1ccc(Cl)cc1)N1N=C(c2ccc(Cl)cc2)CC1(O)c1ccccc1 (centres undefined)	35.4	
CC1(C)C2C=C(CCN3CCOCC3)CC1C2 (centres undefined)	> 100	
O=[N+]([O-])C(=C(Nc1ccccc1)Nc1ccccc1)/C(Cl)=C(\Cl)[N+](=O)[O-]	28.1	
CC(=O)OC/C=C/[C@H](O[Si](C)(C)C(C)(C)C)[C@@H](O)/C=C/COC(C)=O	> 100	
CN1CCc2c3n(c4cc(Br)ccc24)[C@H](O)CCCC31 (some centres undefined)	> 10	
COC(=O)CC1C[C@H](C#N)N(C(=O)c2ccccc2)C[C@@H]1CC[N+](=O)[O-] (some centres undefined)	> 100	

Compound	TGI [µM]	GI50 [µM]
CC[C@@H]1c2c(C#N)ncn2-c2cnc(Nc3ccc(C(=O)NC4CCN(C5CCN(CC6CC6)CC5)CC4)cc3OC)nc2N1C1CCCC1	2.17	0.872
O=C(c1ccccc1)c1ccccc1-c1ccccc1	> 100	9.33
Clc1nc(Cl)c2ncn(CC3(Cn4cnc5c(Cl)nc(Cl)nc54)COC3)c2n1	2.77	1.45
CN(C)CCCNC(=O)c1c(O)c2ccccc2[nH]c1=O	> 100	
CC12O[C@]3([C@H](C(=O)N4CCOC43C)[C@H]1Cl)[C@H]1O[C@H]12 (some centres undefined)	> 100	
COc1ccc2nc3cc(Cl)ccc3c(NCCNC(=O)Cn3c(=O)n(C)c(=O)c4c3nc3c(c(=O)n(C)c(=O)n3C)[n+]4[O-])c2c1	> 100	
N#Cc1ccc(OCc2nc(N)nc(N)c2-c2ccc(Cl)c(Cl)c2)cc1	> 100	1.47
CN(C)c1ccc(/C=C/C(=O)CC(=O)/C=C/c2ccc(N(C)C)cc2)cc1	> 100	
Cc1nnn[n-]1.N.N.N.N.N.[Cl-].[Co+3]	> 100	> 100
CC(=O)N1C(OC(C)C)CC(C)N1c1ccccc1 (centres undefined)	> 10	
CN(O)C(=O)SCC(NC(=O)CCC(N)C(=O)O)C(=O)NCC(=O)O (centres undefined)	> 2000	> 2000
Cc1cc(C)n(-c2nsc3ccccc23)n1	> 100	
C=C1C(=O)O[C@@H]2C[C@@H](C)[C@@H]3C=CC(=O)[C@@]3(C)[C@@H](O)[C@H]12	5.32	
CCc1cc2c(c3c1CCC3=O)CC1(Cc3ccc(C)cc3C1)C2 (centres undefined)	> 100	
O=C(NNC(=S)Nc1ccccc1)c1cc(-c2ccccc2)nc2ccccc12	69.6	
O=C(O)c1n[nH][nH]c1=S	> 100	
O=C1C(N2CCN(c3ccccn3)CC2)=C(Cl)C(=O)c2ncccc21	> 10	
Fc1ccc(Oc2nc3ccc(C(F)(F)F)cc3nc2-c2ccccc2)cc1	> 100	
CC(Cc1ccccc1)Nc1ncnc2c1ncn2C1OC(CO)CC1O (centres undefined)	> 100	
Cc1cc2c(cc1Cl)SC(NNC(=O)c1ccco1)=NS2(=O)=O	> 10	
COC(=O)NC(=O)c1cn(C2OC(CO)C(O)C2O)c(=O)[nH]c1=O (centres undefined)	> 100	
Brc1ccc(C2CC(c3cccc4ccccc34)=Nc3ccccc3S2)cc1 (centres undefined)	> 100	
Cc1c[n+](=O)c2ccccc2n1[O-]	> 100	
COc1cc(C2=C(c3cc(OC)c4ccccc4c3OC)C(=O)c3ccccc3C2=O)c(OC)c2ccccc12	> 100	

Compound	TGI [µM]	GI50 [µM]
COc1cc(/C=C\c2cc(OC)c(OC)c(OC)c2)cc(NC(=O)/C=C/c2cc(OC)c(OC)c(OC)c2)c1OC	> 100	> 100
OCCOCCN1CCN(CCCN2c3ccccc3Sc3ccc(C(F)(F)F)cc32)CC1	25.8	
CCCCCCCCCCCc1nnc(N)o1	> 100	
CCOC(=O)c1nnsc1NC(=O)Nc1ccc(Cc2ccc(NC(=O)Nc3snnc3C(=O)OCC)cc2)cc1	> 100	
O=C1CSC(=S)N1	> 100	
CCCCCCCCNc1cc2c3c(c1)CCCN3CCC2	22.2	8.42
NC(=O)Nc1ccc(S(=O)(=O)Nc2ccc(S(N)(=O)=O)cc2)cc1	> 100	
CC1(C)O[C@H]2[C@H](O)C[C@](O)(CO)C[C@H]2O1	> 100	
CC(=O)OCC1=C(C(=O)O)N2C(=O)C(NC(=O)CSc3ccncc3)C2SC1 (centres undefined)	> 100	
CCN(C(=O)N[C@@H](Cc1ccccc1)C(=O)N[C@@H](CC(C)C)C(=O)OC)c1ccccc1	> 100	
CCCc1cc(=O)oc2c3c(c4c(c12)OC(C)(C)CC4)O[C@@H](C)[C@H](C)[C@H]3O	34.6	
CC(=O)OCCCC(NC(=O)OC(C)(C)C)C(=O)NC(CCCOC(C)=O)C(=O)NC(Cc1ccc([N+](=O)[O-])cc1)C(=O)NCC(=O)OCc1ccccc1 (centres undefined)	34.8	
CC1=C(c2ccccc2)C(c2ccccc2)=C(c2ccccc2)C2(c3ccccc3)C(=O)C(C)CN12 (centres undefined)	> 100	
CN(/N=C/c1cccc2cccnc12)c1ccc([N+](=O)[O-])cc1[N+](=O)[O-]	> 100	
O.O.[NH-]C1(C(=O)O)CCCC1.[NH-]C1(C(=O)O)CCCC1.[Ni+2]	> 100	
COC(=O)C1CC23CCCN4CCC5(c6ccccc6N(C=O)C15CC2)C43 (centres undefined)	> 100	
C=CCN=c1sc2c(n1NC(=O)c1cc3ccc1CCc1ccc(cc1)CC3)C(=O)c1ccccc1C2=O	2.92	1.55
Cc1ccc(Cc2n[nH]c(=O)n2Nc2ccccc2)cc1	> 100	
Cc1cc(-c2cccc3ccccc23)c(C#N)c(=S)n1C1OC(CO)C(O)C(O)C1O (centres undefined)	> 100	
O=C1C(Cl)=C(Nc2cccc(F)c2)C(=O)N1Cc1ccc(Cl)cc1	38.1	15.1
O=C1C(Cl)=C(Nc2cccc(Cl)c2)C(=O)N1Cc1ccc(Cl)cc1	19.3	5.39
COc1ccc2[nH]cc(-c3ccc(-c4c[nH]c5ccc(OC)cc45)s3)c2c1	> 39.5	9.99
CC(=O)NC1C(OC[C@@H](CC(=O)N[C@@H](CC(=O)O)CC(=O)N[C@H](CC(=O)N[C@@H](CCCN)CC(=O)N[C@@H](CCCN)CC(=O)N[C@H](CC(N)=O)C(C)C)C(C)C)NC(=O)C[C@@H](N)C(C)C)OC(CO)C(O)C1O (some centres undefined)	> 100	> 100
COc1ccc(-c2cc3c(c4cc(OC)ccc24)C(=O)OC3=O)cc1	> 100	

Compound	TGI [µM]	GI50 [µM]
O=c1[nH]nc(-c2ccccc2)n1Nc1ccccc1	> 100	
COc1cc(C(O)CCBr)c(OC)cc1C (centres undefined)	> 100	
CCc1ccccc1NC(=O)C1=C(C)NC(C)=C(C(=O)Nc2ccccc2CC)C1c1ccccc1Cl	> 100	
O/N=C1/C(=C/c2ccc3c(c2)OCO3)CCCC1C(NO)c1ccc2c(c1)OCO2 (centres undefined)	53.3	
CCOC(=O)Nc1ccc2c(c1)/C(=N\NC(N)=S)c1ccccc1-2	41.6	12.5
Oc1c(-c2nnc(-c3ccccc3Cl)o2)sc2nnc(-c3ccccc3)c(-c3ccccc3)c12	28	3.34
COc1ccc(/C=C2\CCC(CNc3ccc(S(N)(=O)=O)cc3)C2=O)cc1 (centres undefined)	> 100	
O=[N+]([O-])c1c(F)c(F)c2c(c1F)Nc1ccccc1S2	13.5	
Cc1cccc(/C=C/c2c(C(=O)/C=C/c3ccccc3)c(C)nc3ccccc23)c1	2.92	1.53
C=C(CCOC)CCC1CCCCC(=C)[C@H]1OC(C)=O (some centres undefined)	> 100	
O=C(O)C1=C(O)C(C(=O)O)C23CCCCCCCCCCC12C(C(=O)O)C(O)=C3C(=O)O (centres undefined)	> 100	
c1ccc(-c2nnc(-c3ccccn3)c3c2C[C@@H]2C[C@@H]4Cc5c(-c6ccccn6)nnc(-c6ccccn6)c5[C@@H]4[C@H]32)nc1	> 100	
Cc1ccc2nc3c(=O)[nH]c(=O)nc-3n(C)c2c1C	> 100	
CN(CCNC(=O)c1nn(-c2ccccc2)c2c1Cc1ccccc1-2)CCNC(=O)c1nn(-c2ccccc2)c2c1Cc1ccccc1-2	5.96	
Cc1ccc2c(c1)C(=O)N(N(C)C)CC(=O)N2	> 100	
Cc1cc2c(cc1C)OC(=O)CC2	> 100	
CCc1cccc(C(C)(C)C)c1NC(=S)N/C=C(/C#N)C(N)=O	> 100	
O=c1cc(-c2ccccc2)[nH]c2ccc(N3CCOCC3)cc12	> 100	
N#CC(C#N)=C1c2ccccc2C(=NN)c2ccccc21	> 100	
CN1CCN(C(=S)N(C(=O)c2ccc(Cl)cc2)c2ccccc2)CC1	> 100	
CCOC(=O)c1c(C)nc2c(c1N)CC(=O)N2Cc1ccc(OC)cc1	> 100	> 100
CN1CCC2(CC1)ONC1=NCCN12	> 100	33.7
O=C(O)CCC(=O)N1c2ccccc2CC1c1c[nH]c2ccccc12 (centres undefined)	> 100	
